Laboratory results reported in PubChem BioAssay AID1508624 (National Center for Advancing Translational Sciences (NCATS), 2021).
Hit rate of the full screen: of about 48,000 compounds, about 120 (0.25%) were called active. Not shown: some 4% with an inconclusive outcome. Calls follow the shape of the dose curve; as a rule, active = well fitted activation curve with a large enough effect; inconclusive = small, poorly fitted or top-dose-only effect, or another doubt; inactive = no such curve, though single readings can be large or run the other way. The list shows a part of the results.

Assay: Primary qHTS for Identification of Small Molecule Activators of Huntingtin-Antisense Promoter Activity; also: nearly all actives have a fitted effect of over 55% in size
Conditions: HEK293 HTT-AS promoter firefly luciferase reporter (activity 0% = vehicle and -100% = no light), 24 h; series mostly up to 57.5 µM; activity change, positive = activation: at the top concentration
How it was run: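 Firefly luciferase readout (Dual-Glo, 10 min RT) after 24 h, 37 °C compound exposure (final up to 57.5 uM) of HEK293 reporter cells cultured 24 h beforehand; PTC124 at 50 uM final as control inhibitor; activity scaled vehicle 0%, zero RLU -100%.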

Activity change, positive = activation, inactive:
CCN(Cc1ccccc1)C(=O)CN(c1ccc(OC)cc1)S(=O)(=O)c1c(C)nn(C)c1C -10.3%
CCCCN(CCCC)CCNC(=O)c1cn(CC)c2ccc(S(=O)(=O)N(C)C3CCCCC3)cc2c1=O -2.39%
COc1ccc(Cl)cc1NS(=O)(=O)c1ccc2c(c1)NC(=O)CC(=O)N2 -2.21%
CCOc1ccc(NC(=O)Cn2c(=O)n(-c3cccc(OC)c3)c(=O)c3c4c(sc32)CCCC4)cc1 -4%
COC(=O)N[C@H](C(=O)N1CCC[C@@H]1c1ncc(-c2ccc(-c3ccc(-c4cnc([C@@H]5CCCN5C(=O)[C@@H](NC(=O)OC)C(C)C)[nH]4)cc3)cc2)[nH]1)C(C)C -17.3%
Cc1ccc(-c2c(C)n3c4c(=O)n(C)c(=O)n(C)c4nc3n2CCO)cc1 -42.7%
CC(=O)N1CCc2c(sc3c2c(=O)n(CCc2ccccc2)c(=O)n3Cc2ccc(Cl)cc2)C1 -35.5%
Cc1cc2c(cc1S(=O)(=O)N1CCCCC1)OCC(=O)N2 -21.4%
Cc1ccccc1NC(=O)CSc1nc2c(c(=O)n(C)c(=O)n2C)n1Cc1ccccc1F 3.81%
COCCNC(=O)Cn1c(=O)n(CCCCCC(=O)NCc2ccc3c(c2)OCO3)c(=O)c2sccc21 -13.4%
CCOC(=O)C1CCCN(C(=O)c2cc3c(=O)[nH]c4ccc(C)cc4c3s2)C1 (stereo not drawn) -17.4%
CN(Cc1ccccc1)S(=O)(=O)c1cc(Br)cc2c1N(C(=O)C1CC1)CC2 -26.6%
CCN(CCCNC(=O)CN1N=C(c2ccc(OC)cc2)CCC1=O)c1cccc(C)c1 -39.2%
CCCCN(C)CCCNC(=O)c1cc(-c2ccc(Br)s2)nc2ccccc12 -19.6%
Cc1cccc(NC(=O)CCCCCn2c(=O)[nH]c3ccsc3c2=O)c1 -17.9%
CCOc1ccc(CCNC(=O)CCCn2nc(C)c3sc4ccccc4c3c2=O)cc1 -10.3%
COc1cccc(Nc2sc(C(=O)c3ccc(F)cc3)c(N)c2C(=O)NCc2ccc(Cl)cc2)c1 -15.5%
Cc1cccc(N2CCN(C(=O)c3cn(CC(C)C)c(=O)c4c3c3ccccc3n4C)CC2)c1C -32.9%
COc1cc2nccc(Oc3ccc(NC(=O)NC4CC4)c(Cl)c3)c2cc1C(N)=O -22.4%
COc1cccc(N2CC(NC(=O)CCCc3ccccc3)CC2=O)c1 (stereo not drawn) -5.77%
Cc1ccc(NS(=O)(=O)c2c(C)[nH]c(=O)[nH]c2=O)c(C)c1 -6.7%
COc1ccc(-c2ccc(NS(=O)(=O)c3ccc(C(C)=O)cc3)cc2)nn1 -23.6%
Cc1ccc(-c2noc(CNC(=O)c3ccc(Br)o3)n2)cc1 -20.4%
COc1ccc(NC(=O)CC2C(=O)N(c3cccc(C)c3)C(=O)N2C2CCCCC2)cc1 (stereo not drawn) -0.106%
CC(=O)c1cccc(NC(=O)c2cc(-c3ccc(Cl)s3)nc3ccccc23)c1 -18.9%
COc1ccc(-c2nnc(SCC(=O)Nc3ccc(C(C)C)cc3)nc2-c2ccc(OC)c(OC)c2)cc1OC -23.6%
CCC(C)(Oc1ccc(C2(c3ccc(OC(C)(CC)C(=O)O)cc3)CCCCC2)cc1)C(=O)O (stereo not drawn) 6.27%
CC(C)c1ccc(S(=O)(=O)c2nnn3c2nc(N2CCCCC2)c2sccc23)cc1 -8.56%
COc1cccc(C(=O)Nc2ccc(-c3cc(C(F)(F)F)nn3-c3ccccc3)cc2)c1 -50.2%
Cc1ccc(C)c(CN2C(=O)N(c3cc(Cl)ccc3C)S(=O)(=O)c3ccccc32)c1 -17.4%
Cc1ccc(C)c(Cn2c(-c3cccs3)nc3ccccc32)c1 -41.3%
CCOc1ccccc1CNS(=O)(=O)c1ccc2[nH]c(=O)ccc2c1 -21%
CC(C)Cc1ccc(S(=O)(=O)Nc2cc3c(cc2N2CCOCC2)n(C)c(=O)c(=O)n3C)cc1 -19.3%
CCc1nn(CC(=O)NCCCN(CC(C)C)CC(C)C)c(=O)c2cc3sc(C)cc3n12 -1.41%
COc1ccccc1N1CCN(C(=O)Cn2cnc3onc(-c4ccc(F)cc4)c3c2=O)CC1 -18.6%
O=C(c1ccc2c(=O)n(CCc3ccccc3)c(=O)[nH]c2c1)N1CCN(c2ccc(F)cc2)CC1 -45.6%
Cc1nn(-c2ccccc2)c2c1N(CC(=O)N1CCN(c3cccc(Cl)c3)CC1)C(=O)CS2 -6.56%
COc1ccc(Cn2c(=O)c3oc4ccccc4c3n(Cc3cccc(C(F)(F)F)c3)c2=O)cc1 -30.8%
COc1cccc(N2CC(NC(=O)c3ccco3)CC2=O)c1 (stereo not drawn) -11.8%
CCCCCCOc1ccc(C2C(=O)N(C3CCCCC3)CC(=O)N2CCC)cc1 (stereo not drawn) -25.2%
CCOc1ccccc1CNC(=O)C1CCN(c2nn3cc(-c4ccc(F)cc4)nc3s2)CC1 7.44%
Cc1cccc(N2CCN(C(=O)c3cccc(-n4c(C)nc5cccnc54)c3)CC2)c1C -31.6%
CC(C)c1ccc(CN(Cc2ccco2)c2cnc(S(C)(=O)=O)nc2C(=O)Nc2ccc(F)cc2)cc1 -20.8%
Cc1ccc(C(=O)Nc2cc3nn(-c4ccccc4)nc3cc2Cl)c(C)c1 -3.33%
CCOc1ccccc1N(CC(=O)NCCSc1ccccc1)S(=O)(=O)c1ccccc1 -31.7%
N#C/C(=C\c1ccc(Cl)cc1Cl)c1nc(-c2cccc(Cl)c2)cs1 0.66%
COc1ccccc1Cc1nc2ccccc2nc1SCC(=O)N(C)c1ccc(F)cc1 -15.3%
Cc1nnc(N2CCC(C(=O)NCCc3ccccc3Cl)CC2)c2nn(-c3ccccc3)c(C)c12 -36.6%
Cc1cccc(N2CCN(C(=O)Nc3cn(CC(C)C)c(=O)c4ccccc34)CC2)c1C -9.59%
Cc1ccc(-c2noc(C(C)NS(=O)(=O)c3ccc(C)cc3)n2)cc1 (stereo not drawn) 1.53%
COc1ccc(CNC(=O)Cc2c(C)c3cc4c(C)coc4c(C)c3oc2=O)cc1 -2.2%
O=C(Nc1cccc(Cl)c1)c1cnc2sc(N3CCCC3)nn2c1=O -42.9%
CN1C(=O)Cc2cc(S(=O)(=O)N3CCN(c4ccccc4F)CC3)ccc21 -22.8%
Cc1ccc(C)c(CN2CCCN(Cc3ccc(F)cc3)S2(=O)=O)c1 -31.4%
Cc1nc(-n2nc(C)c(Cc3ccccc3Cl)c2C)sc1C(=O)Nc1ccccc1F -1.01%
CCOC(=O)Cn1c(=O)n(CC2CCCO2)c2nc(-c3ccc(C)cc3)nc(C(N)=O)c21 (stereo not drawn) -8.72%
CC(=O)c1ccc(S(=O)(=O)N2CCn3cccc3C2c2ccc(C)cc2)cc1 (stereo not drawn) -27.9%
Cc1ccc2nc3c(cc(C(=O)NCC4CCCO4)c(=N)n3C(C)C)c(=O)n2c1 (stereo not drawn) 10.3%
